SMILES strings stand for the structures. In all, about 110,000 compounds were measured (“z-score”: median about -0.1, highest 2% from about 2 on). This is one part of the list. Calls of active or inactive are those of the source.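 The calls were made as follows: active = z-score in the third read window above 3 or below -3; inactive = the rest.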

The target in this assay is Metabotropic glutamate receptor 8 (Rattus norvegicus) (UniProt P70579). The experiment in a line: rat mGluR8 modulators via GIRK flux, primary screen, cell-based, thallium flux, HTS (AID 488969). As to conditions: HEK293 rat mGluR8, GIRK (G protein-gated inwardly rectifying potassium channel) thallium flux, FluoZin2; at 10 µM; stronger effect = higher value; submaximal glutamate (EC20) added with thallium.
Chain of UniProt P70579 (P70579 whole entry, looked up): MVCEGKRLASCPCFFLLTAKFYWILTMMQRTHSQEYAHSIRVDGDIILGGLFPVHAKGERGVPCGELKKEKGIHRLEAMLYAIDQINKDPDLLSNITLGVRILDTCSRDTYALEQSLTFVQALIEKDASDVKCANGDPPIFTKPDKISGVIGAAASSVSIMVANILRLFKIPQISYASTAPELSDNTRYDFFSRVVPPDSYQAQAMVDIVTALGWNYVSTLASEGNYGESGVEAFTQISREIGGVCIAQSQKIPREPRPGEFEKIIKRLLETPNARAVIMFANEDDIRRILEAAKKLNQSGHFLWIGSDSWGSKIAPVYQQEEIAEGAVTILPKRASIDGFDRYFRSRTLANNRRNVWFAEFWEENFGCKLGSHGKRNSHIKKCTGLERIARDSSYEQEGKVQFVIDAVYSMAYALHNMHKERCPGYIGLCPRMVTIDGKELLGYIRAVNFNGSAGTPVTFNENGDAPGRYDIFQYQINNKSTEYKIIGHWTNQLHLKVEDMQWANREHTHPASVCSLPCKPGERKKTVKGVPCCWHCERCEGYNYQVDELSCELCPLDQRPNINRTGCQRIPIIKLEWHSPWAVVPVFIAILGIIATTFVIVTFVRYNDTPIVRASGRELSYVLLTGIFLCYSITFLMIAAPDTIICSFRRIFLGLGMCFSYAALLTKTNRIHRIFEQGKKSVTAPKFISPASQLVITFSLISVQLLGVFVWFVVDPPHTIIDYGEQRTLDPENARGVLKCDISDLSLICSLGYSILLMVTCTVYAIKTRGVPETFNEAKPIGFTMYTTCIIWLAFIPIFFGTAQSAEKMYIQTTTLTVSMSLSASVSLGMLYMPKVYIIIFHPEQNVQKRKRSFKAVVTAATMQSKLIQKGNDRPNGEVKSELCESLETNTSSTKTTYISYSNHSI
In the case of `C/C(NC1CCCC1)=C(/C#N)C(N)=O`, the z-score is -0.0372. The result for `COc1ccc(NC(=S)N/N=C2\CC(C)(C)Oc3ccc(OC)cc32)cc1` reads -0.239. `Cc1nc2ccc(Br)cn2c(=O)c1Cl` yielded a z-score of 0.176. Compound `CC(/C=N/n1c(-c2cc(C)[nH]n2)n[nH]c1=S)=C\c1ccccc1` displayed a z-score of -0.302. The result for `O=C(c1ccco1)N(Cc1ccc([N+](=O)[O-])cc1)c1ccc(Br)cc1` reads -0.255; that for `CC1=Nn2c(nc(-c3ccccc3)c2-c2ccccc2)NC(=O)C1Br` (centres undefined), 0.0626; that for `COc1ccc2nc(/N=C(\N)NC(=O)N3c4ccccc4Sc4ccccc43)nc(C)c2c1`, -0.187.

`O=S1(=O)CCC(NS(=O)(=O)c2cccc3cccnc23)C1` (centres undefined) showed a z-score of 0.203.

On to `NS(=O)(=O)c1ccc(N/C=C\C(=O)c2cccc3ccccc23)cc1`, for which the z-score is -0.217. `COc1ccc(C2=NN(C(=O)CSc3cn(C)c4ccccc34)C(c3ccc(OC)cc3)C2)cc1` (centres undefined) yielded a z-score of -0.564. `CCCCCC(=O)Nc1nc(C)c(-c2csc(Nc3cc(OC)ccc3OC)n2)s1` displayed a z-score of -0.217.

Compound `CC(=O)c1c(C(C)=O)c(C)n(-c2nc(-c3cccs3)c(C)s2)c1C` had a z-score of -2.87. As for `CCCCn1c(=O)c(C(=O)c2ccccc2)nc2ccccc21`, the figure is -0.617; as for `Cc1ccc2[nH]c(=O)c(CN(CCN3CCOCC3)C(=O)Nc3ccc(F)cc3)cc2c1`, -0.382; as for `CC1(C)Cc2c(C#N)c(NCCCO)nc(-c3ccccc3)c2CO1`, -0.107.

Consider `Brc1ccc(C2=Nn3c(nnc3-c3cccnc3)SC2)s1`, for which the z-score was -0.134. `CC(=O)c1cccc(NC(=O)c2ccc(S(=O)(=O)N3CCCCC3)cc2)c1` came in with a z-score of -0.0856. The result for `O=C(Nc1ccccc1)Nc1ccccc1C(=O)NCc1ccccc1` reads -0.329; that for `Cc1cc(C(=O)NCCCOC(C)C)c2ccccc2n1`, -0.139; that for `O=C(NCCCN1CCOCC1)c1cc(C(=O)C2CC2)c[nH]1`, -0.179. Compound `CONc1nc(NC(C)(C)C)nc(OCC#N)n1` gave a z-score of 0.0532.

The compound `Cc1ccc(C(=O)c2cc([N+](=O)[O-])ccc2N2CCCCC2)cc1C` came in with a z-score of 0.391. The compound `NS(=O)(=O)c1ccc(CCNC(=O)CCCCCNc2nc(=S)[nH]c3ccccc23)cc1` registered a z-score of -0.55. As for `Cc1onc(-c2ccccc2)c1C(=O)n1cccn1`, the figure is 0.00196; as for `Cn1cc(C(=O)c2ccc(Cl)cc2Cl)cc1C(=O)N/N=C(\N)COc1ccccc1`, -1.68.

Compound `CCCCN(CC)CCCNC(=O)CC1Nc2ccccc2NC1=O` (centres undefined) came in with a z-score of 0.0522. Compound `CCOC(=O)c1c(C(C)(C)C)oc2ccc(OCC#N)cc12` gave a z-score of 1.22. Turning to `CC(=O)Nc1c(C(=O)N2CCN(c3ncccn3)CC2)cnn1-c1ccccc1Cl`, the z-score was -0.0377. For `CCOC(=O)c1sc2nc(CC(=O)OC)nc(NCc3ccco3)c2c1C`, the z-score is -0.245.

`O=C(CSCc1ccc(Br)cc1)N=Nc1c(O)[nH]c2ccccc12` registered a z-score of 2.84. In the case of `O=C(COc1ccccc1)Nc1nn[nH]n1`, the z-score was 0.183. For the compound `O=C1CN(C(=O)CSc2nnc(Nc3ccccc3)s2)c2ccccc2N1`, the z-score was -0.133. In turn, `Cc1ccc(-n2c(SCC(=O)Nc3ccc4c(c3)OCO4)nnc2-c2cccs2)cc1` displayed a z-score of 0.524.

`CCc1ccc(C(=O)COC(=O)CNC(=O)c2cccs2)cc1` showed a z-score of -0.0493.

Regarding `Fc1cccc(-n2c(-c3ccco3)nc3nc4ccccc4nc32)c1`, the z-score is active: 3.05.

As to `CCOc1ccc(S(=O)(=O)NCCC(=O)NC2=NCCS2)cc1`, the z-score was -0.521. Take `CCOC(=O)c1c(NC(=O)C2C3CCC(O3)C2C(=O)O)sc(C)c1-c1ccc(F)cc1` (centres undefined): the z-score is -0.176. As for `CC(C)CCNC(=O)c1cccc(S(=O)(=O)N2CCc3ccccc32)c1`, the figure is -0.24.

`Cc1ccc(S(=O)(=O)NCc2csc(C)n2)c(C)c1`: the z-score was -0.542. The result for `OCCOc1ccc(C2=NCCO2)cc1` reads 0.0997.

In turn, `COC(=O)c1cc(Br)c(=O)n(CCc2ccc(F)cc2)c1` came in with a z-score of 0.362. Turning to `Cc1ccc(S(=O)(=O)N2CCCC(C(=O)NCc3ccco3)C2)cc1Cl` (centres undefined), the z-score was -0.285. As to `O=C(Nc1nc2ccc(F)cc2s1)C1CCCO1` (centres undefined), the z-score was determined as 0.535. As for `Cc1cc2c(c(=O)n1Cc1cccnc1)C(c1ccccc1)C(C#N)=C(N)O2` (centres undefined), the figure is -0.39; as for `CC(Nc1cc(N2CCCC2)ccc1[N+](=O)[O-])c1ccccc1` (centres undefined), -0.624. In turn, `Cc1cc([N+](=O)[O-])nn1CC(=O)NNC(=S)Nc1ccc(Cl)cc1` returned a z-score of -0.0824.

For `Cc1cc(C)nc(NC2=NCC(=O)N2c2ccc3c(c2)OCCO3)n1`, the z-score was found to be 0.0797.

Compound `Cn1c(Cc2cccs2)nnc1SC/C=C/c1ccccc1` gave a z-score of -0.741. The result for `COc1ccc(C(=O)NC(=S)N2CCCCC2)cc1` reads active: 3.44; that for `Cc1cccc(NC(=O)c2ccc([N+](=O)[O-])o2)n1`, -0.0205; that for `Cc1noc(C)c1S(=O)(=O)N(CC(=O)N1CCCC1)c1ccc(C(C)C)cc1`, -0.347. `COc1ccc(C(=O)NCc2nnc(SCC(=O)N3CCc4ccccc43)n2CCc2ccccc2)cc1` returned a z-score of -0.000737. Take `Cc1ccc(NC(=O)C(SCC(=O)O)c2ccccc2)cc1C` (centres undefined): the z-score was -0.36. In the case of `CN(C)C(=O)Nc1cnc2ccccc2c1`, the z-score was -1.01. Take `N#Cc1nc(-c2ccccc2Cl)oc1NCC1CCCO1` (centres undefined): the z-score was -0.164. The compound `CCCn1nc2cc(C(=O)NCCc3cccs3)ccc2c1OCC` displayed a z-score of -0.373. The result for `O=C1c2oc3ccc(F)cc3c(=O)c2C(c2ccccc2)N1CC1CCCO1` (centres undefined) reads 0.654; that for `CCn1c(-c2cc(-c3cc(OC)ccc3OC)nc3ccccc23)n[nH]c1=S`, 0.132. With `CCC(=O)NCCCCCCCCCNC(=O)CC`, the z-score is -0.227. `CN(CC(=O)Nc1cccc2c1CCCC2)S(=O)(=O)c1ccccc1` returned a z-score of -0.247. With `Cc1oc(C(=O)O)cc1COc1cccc2cccnc12`, the z-score was -0.302.

In the case of `CN1CCN(S(=O)(=O)c2ccc(NC(=O)c3csc4ccccc34)cc2)CC1`, the z-score was 1.16.

`CCCn1c(SCC(=O)N2c3ccccc3CCc3ccccc32)nc2c1c(=O)n(C)c(=O)n2C` gave a z-score of -0.358.

Take `Cc1ccccc1-c1nc2sc3c(c2c(=O)n1N)CCCC3`: the z-score is 0.58. The result for `O=C(CSc1nc2ccc(Cl)cc2[nH]1)N1CCN(C(=O)c2ccco2)CC1` reads -0.163. Consider `CN(CCCNC(=O)c1ccc(/C=N/O)nc1)CCCN(C)Cc1ccccc1`, for which the z-score was -0.117. Take `CCSc1nc(C)c(CC)c(C)c1C(N)=O`: the z-score is 0.272.

Compound `CC(=O)N1N=C(C)CC1c1ccc(O)cc1` (centres undefined) registered a z-score of -0.132. As for `Cc1ccc(C=Nc2cc([N+](=O)[O-])ccc2C)s1`, the figure is -0.082. For the compound `Cc1noc(C)c1CSc1nc2[nH]ncc2c(=O)n1-c1ccccc1`, the z-score is -0.191.

Regarding `c1ccc2c(c1)ncn2CCC1CCCCC1`, the z-score turned out to be 0.093.

On to `C#CCn1c(S(=O)(=O)Cc2ccc(C)cc2)nc(-c2ccccc2)c1-c1ccccc1`, for which the z-score was -0.259.

For the compound `CCS(=O)(=O)CCSc1nc(C)cc(C)c1C#N`, the z-score was -0.438. As to `c1ccc(Oc2cc(-c3ccccc3)ncn2)cc1`, the z-score was -0.0979. Turning to `COC(=O)Cn1c(=O)n(CCc2ccccc2)c(=O)c2c3c(sc21)CCCC3`, the z-score amounted to 0.15. Turning to `CSc1nc(N2CCOCC2)c2c(c1C#N)CCCCC2`, the z-score was -0.315. In turn, `CC1(C)Cc2nc3oc4c(N5CCOCC5)ncnc4c3cc2CO1` yielded a z-score of -0.0757. For `Cc1c(NS(=O)(=O)c2ccc(N(C)C3CCCCC3)c([N+](=O)[O-])c2)c(=O)n(-c2ccccc2)n1C`, the z-score is -0.65. The result for `CC(C)CN(C(=O)COC(=O)c1ccccc1Sc1ccccc1C#N)C1CCS(=O)(=O)C1` (centres undefined) reads -0.221. `COCCCNC(=O)c1ccc(N2CCOCC2)c(NS(=O)(=O)c2ccc(OC)cc2)c1`: the z-score was found to be 0.0672. `COC(=O)c1ccccc1NC(=O)C1CCN(C(=O)c2cc(OC)c(OC)c(OC)c2)CC1` displayed a z-score of -0.579. As for `CCc1cc2c(=O)c(-c3cnn(-c4ccccc4)c3)c(C)oc2c(CN2CCCCC2)c1O`, the figure is -0.384; as for `CCN(CC)CCCCOc1ccccc1OC`, 0.303; as for `CCc1cc(C(=O)OC)c(NC(=O)C2CC(=O)NN2Cc2ccccc2)s1` (centres undefined), -0.283. Compound `Cc1nc2cc(C(=O)OCC(=O)NC34CC5CC(CC(C5)C3)C4)ccc2n1-c1ccccc1` gave a z-score of -0.146. In turn, `O=C(NNC(=O)C1COc2ccccc2O1)c1ccccc1` (centres undefined) came in with a z-score of 0.0265. Regarding `O=C1NC(=S)S/C1=C1\Sc2ccccc2N1CCCS(=O)(=O)O`, the z-score is -0.365. `CCCCNc1nnc(SCC(=O)N2CCN(S(=O)(=O)c3ccc4ccccc4c3)CC2)s1` registered a z-score of -0.358. For `O=[N+]([O-])c1cccc(C(=S)N2CCN(c3ccccc3)CC2)c1`, the z-score is -0.237. `COc1ccccc1NC(=O)N(Cc1ccco1)Cc1cc2cccc(C)c2[nH]c1=O` had a z-score of -0.837. Compound `CCN1CCN(C(=O)C2CCN(S(=O)(=O)c3cccc4cccnc34)CC2)CC1` displayed a z-score of 0.0329. `CCOC(=O)Nc1nnc(-c2ccc(OC)cc2)s1` yielded a z-score of 0.0823. Regarding `O=C(CN1CCCC1=O)NC1C2CC3CC(C2)CC1C3` (centres undefined), the z-score was 0.96. On to `O=C(CS(=O)(=O)Cc1ccccc1)Nc1ccc(Cl)cn1`, for which the z-score was -0.0774. For `O=C(O)CSc1nnc(CNc2cccc(C(F)(F)F)c2)n1Cc1ccco1`, the z-score was determined as 0.202. For the compound `CCOC(=O)Cn1c(=O)oc2cc(S(=O)(=O)N3CCCc4ccccc43)ccc21`, the z-score was -0.376. Turning to `Fc1ccc(NCc2nnc(SCc3nnc(-c4ccccc4)o3)n2CC2CCCO2)cc1` (centres undefined), the z-score turned out to be 0.131. The compound `O=C(O)C1CCC(CNCc2ccccc2Cl)CC1` (centres undefined) came in with a z-score of -0.333. Consider `Cc1nc2ccc(S(=O)(=O)N(C)CC(=O)N3CCc4ccccc4C3)cc2s1`, for which the z-score stood at 0.317. Regarding `CN(C)CCCNCCCNC(=O)/C=N/O`, the z-score was -0.226. As for `CCOc1ccc(NC(=S)/C(=C(\[O-])c2ccc(C)c([N+](=O)[O-])c2)[n+]2ccccc2)cc1`, the figure is -0.213; as for `O=C(C(c1ccccc1)c1ccccc1)N1CCC(c2nc(-c3ccccc3Cl)no2)CC1`, 0.17.

Turning to `O=C(c1ccc2c(c1)OCO2)N1CCOCC1`, the z-score is -0.335. `COc1ccc(N(CC(=O)Nc2c(C)n(C)n(-c3ccccc3)c2=O)S(=O)(=O)c2ccc(F)cc2)cc1` displayed a z-score of -0.0544. The compound `CCn1nccc1C(=O)Nc1cc(Cl)cc(Cl)c1` returned a z-score of -0.297. In the case of `O=C(CSc1nnc(C23CC4CC(CC(C4)C2)C3)o1)Nc1ccc(N2CCOCC2)c(Cl)c1`, the z-score worked out at 0.207. For the compound `CCN(CC)C(=O)NC1CC(=O)N(c2ccc(OC)cc2)C1` (centres undefined), the z-score was 0.0777. `COc1ccc(C(=O)N/N=C/c2ccc(OC(=O)c3cccc4ccccc34)c([N+](=O)[O-])c2)cc1` registered a z-score of 0.601.

`CCN(C(=O)c1c(C)cc(=O)oc1C)c1ccc2c(c1)OCO2` showed a z-score of -0.0854.

(Values after PubChem BioAssay AID488969 (Vanderbilt High Throughput Screening Facility, 2010).)
